Test results: the supplement of paper PMC12632987
In all, about 4,500 sequences were measured (“median log2 fold change of GCK-ALFA target abundance (FLAG IP / Myc IP barcode read proportion)”: median about 0.078, lowest 2% from about -0.6 on). The list shows a part of the results.

B1: GBRAP_160_4139 (protein)
chain: SEELEKLIKEIKEITEEAIELIEDESRENAKTIARVALGEIVLLVESNEAVSDETEDKVGKIVDEAEKKLDENEDLTNEEIKEILKKAAEEVIKIIEEEI
B2: GBRAP_160_4035 (protein)
chain: SEKLKKLKEFTKELFEEAKELVEGQSAEQRAAIAAVTGGQVILEAEELGIDNDELHDKIDAITDELVDYLLAHPDLSEEEVKALIEEARDKILKAIEESE
B3: GBRAP_160_4869 (protein)
chain: SEKLERALKIVEENEKEALDAVKEAPASQRAAIAAAIAGEAIQELIEEGLVSDELEDELMKIVDELEAKLKANADASVEEHQALIKEAFEKMKEVIKKHM
B4: GBRAP_184_5119 (protein)
chain: EVVRESVEGTDAEELIAKAEAVVAAAAAAGKRLLLHVFAKNMSVEEIIKVIEHLGKLKAAHPEVEIILDVLDEKSEEEIDKIVEAADKAGVRVVVAIKEE
B5: GBRAP_84_7003 (protein)
chain: SLEERRLAVVQEILERSSIELKALLLTYLLLKNENKEATLALNDLLKEDPEAAVEALDKAQEYYEEDKEEEAEKELLEKAKEEGEEVAELVKEYLELTKK
B6: GBRAP_128_3537 (protein)
chain: SLEEVKARAEEVMEKIKESDVETAYEITKEFLEELKSLSLEEVEAAIEVLEERLPELTAEKLEAIADAMREERPKLSPEKQNLVADLEVEALNEAEEKEE
B7: GBRAP_52_5902 (protein)
chain: SSARARELAEAVVAAIEAGDFEKAVELIVEALLTLSDEEIDEFARRLRELLAGRSLADAEAAVEAVDKAGEIALKKGADEDKVLLVEGAAEAALVEVELR
B8: GBRAP_52_6136 (protein)
chain: MEEELREKAERIIELVKEGKLEEARKLAKELAEELNDEELRLFAEEFAELVKKLPKEDLDAAAEAMDIVVDELEKVGHPEELISYFIGKATTAMYEVELK

Target: GABARAP, O95166
Sequence (O95166 whole entry, the tested form may be a part): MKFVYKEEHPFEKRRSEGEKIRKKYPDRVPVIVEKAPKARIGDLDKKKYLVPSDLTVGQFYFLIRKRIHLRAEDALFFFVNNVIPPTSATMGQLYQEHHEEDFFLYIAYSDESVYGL
Test: median log2 fold change of GCK-ALFA target abundance (FLAG IP / Myc IP barcode read proportion) (log2 ratio); each designed protein is fused to an ALFA-tag nanobody in HEK293 cells to bring the named protein to FLAG-tagged glucokinase (GCK); Myc marks an untargeted standard; higher = target protein stabilised (more abundant)
Conditions: target protein: 3xFLAG-MCP-GCK-ALFA reporter; HEK293 landing pad (RPLP)
In short: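 HEK293 landing-pad cells received a recombined binder library fused to the ALFA nanobody and were induced with 2 μg mL^−1 doxycycline, then transfected with a plasmid encoding a FLAG-tagged target and a Myc-tagged standard. Lysates were collected after 48 h for anti-FLAG and anti-Myc immunoprecipitation, and the circular RNA barcodes were reverse transcribed, amplified and sequenced. Target abundance for each binder is the median log2 ratio of FLAG to Myc barcode read proportions. Barcodes had to reach a proportion of at least 10^−7 in both replicates, each binder needed at least 3 barcodes per replicate, a pseudocount of 10^−6 was applied, and the two replicates were pooled.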

Row | Binder | median log2 fold change
1 | B1 | -0.0507
2 | B2 | -0.112
3 | B3 | 0.257
4 | B4 | -0.275
5 | B5 | -0.157
6 | B6 | 0.0317
7 | B7 | -0.361
8 | B8 | 0.0743
